Several values for one entry are separate records, joined by “and”; a condition that tells them apart may be missing. Identical values can stand only once.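 Cultured in 96-well plates, cells were exposed to test compound for 48 hours across five concentrations. Here, GI50 denotes the concentration required for 50% inhibition of growth. The concentration for full growth arrest is given as TGI.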

In PubChem BioAssay (NCI) one finds GI50 and TGI data, which are given here for 82 compounds.

For this test, the system named is NCI-H322M lung. The test is described as follows: NCI-60 cell line screen, 48 h.
Take `COc1ccc(N2CCN(CC(=O)N3CCN(c4nnc(-c5ccccc5)c(-c5ccccc5)n4)CC3)CC2)cc1`: the GI50 is above 67.5 µM and the TGI is above 100 µM.
The compound `O=C([C@H](O)[C@@H](O)c1ccc(Br)cc1)C12CC3CC(CC(C3)C1)C2` yielded a TGI of 32.2 µM.
`COc1ccc(OC)c(CNc2ccc(O)c(C(=O)NCCc3ccc(F)cc3)c2)c1`: the TGI amounted to 73.3 µM.
For `Cc1cc(-c2ccccc2)c(C)n1Cc1ccc(Cl)cc1`, the GI50 is 19.9 µM and the TGI was above 100 µM.
On to `C[C@H](CC[C@@H](O)C(C)(C)O)[C@H]1CC[C@@]2(C)[C@@H]3CC=C4[C@@H](CC[C@H](OC5OC(CO)C(O)C(O)C5O)C4(C)C)[C@]3(C)C(=O)C[C@]12C` (stereo partly specified), for which the TGI is above 100 µM.
Take `CC(C)[C@@H](C(=O)O[C@@H]1/C=C/C(=O)O[C@@H](C)CCC/C=C/[C@@H]2C[C@H](O)C[C@H]21)[N+](C)(C)C`: the GI50 was above 100 µM and the TGI was above 100 µM.
Compound `CCOC(=O)CNC(SC)=C(C#N)C#N` gave a TGI above 100 µM.
Turning to `COc1cc(C(=O)/C=C/c2c(-c3ccc(F)cc3)nc3sccn23)cc(OC)c1OC`, the GI50 is 2.37 µM and the TGI turned out to be 21.7 µM.
Turning to `OC(COc1ccc(Cl)cc1Cl)CN1CCCC1` (stereo unspecified), the TGI was above 100 µM.
On the same count and under the same terms, with `CC1=CC(=O)c2cccc(NC3=NCCO3)c21` the figure was above 100 µM.
Regarding `CC(=O)OCCC/C(=C\c1ccc2ccccc2c1)[N+](=O)[O-]`, the GI50 was 2.02 µM and the TGI came to 4.82 µM.
On to `Cc1ccc(S(=O)(=O)n2cc(-c3cnc(N)c(Br)n3)c3ccccc32)cc1`, for which the TGI was above 100 µM.
Consider `CC(C)O/C=C1\C(=O)C2(SCCS2)[C@H]2CCCC[C@@H]12`, for which the TGI was above 100 µM.
On to `CSc1nc2c(nc(N)n2C2OCC(O)C(O)C2O)c(=O)[nH]1` (stereo unspecified), for which the TGI is above 100 µM.
On the same count and under the same terms, next, `O=c1c2cc(-c3ccccc3)cnc2sn1-c1ccc([N+](=O)[O-])cc1`: above 100 µM; `COc1ccc2oc(-c3ccncc3)cc(=O)c2c1`: above 100 µM.
For the compound `Oc1c(I)cc(I)cc1CNCCCN(Cc1ccccn1)Cc1ccccn1`, the GI50 is 0.881 µM and the TGI turned out to be 1.86 µM.
The corresponding values for `Cc1c(N2C(=O)/C(=C\c3ccc(O)cc3)N=C2c2ccccc2)c(=O)n(-c2ccccc2)n1C` are above 100 µM and above 100 µM.
On the same counts, the results for `CC12C=CC(C)(O1)C1C2c2ccccc2S1(=O)=O` (stereo unspecified) are above 100 µM and above 100 µM.
On the same counts, the results for `CC(=O)NNC(=O)c1nn(-c2ccc(Cl)cc2)cc1OC(C)=O` are 11.9 µM and above 100 µM.
`Cc1nnc(N)nc1/C=C\c1cccs1`: the TGI turned out to be 59.5 µM.
The compound `Cc1cn(C2C=CC(=O)C(C)O2)c(=O)[nH]c1=O` (stereo unspecified) came in with a TGI of 40.5 µM.
In turn, `C#CCOCn1cnc2ncnc(Cl)c21` registered a TGI above 100 µM.
For the compound `COC(=O)C1CC2(c3ccc(C)cc3)C(c3ccc(C)cc3)=C(c3ccc(C)cc3)C1(c1ccc(C)cc1)S2=O` (stereo unspecified), the GI50 is above 100 µM and the TGI was above 100 µM.
In turn, `C/C=C/C=C/C1=NN(c2cccc(S(=O)(=O)O)c2)C2(C1)SCC(=O)N2c1nc2ccccc2s1` (stereo unspecified) gave a TGI above 100 µM.
`CCCCCCC(CCl)c1sc(-c2csc(CCNC(=O)OC(C)(C)C)n2)nc1C(=O)OC` (stereo unspecified) showed a TGI above 100 µM.
For `COc1cc2c(cc1OCCCCCCNC(=O)c1cc3ccccc3[nH]1)N=CC1CCCN1C2=O` (stereo unspecified), the GI50 is 25.3 µM and the TGI was above 100 µM.
On to `COc1ccc(CNc2nc3ccccc3nc2-c2cccs2)cc1OC`, for which the TGI was above 100 µM.
As to `CN(C)CCCNC(=O)c1cc(NC(=O)c2cc(NC(=O)c3cc(NC(=O)CCCn4ccc(CO)c4CO)cn3C)cn2C)cn1C`, the TGI is above 100 µM.
As to `O=C(O)c1cn(C2CC2)c2cc(N3CCN(S(=O)(=O)c4ccc(Cl)c(Cl)c4)CC3)c(F)cc2c1=O`, the GI50 was 3.24 µM and the TGI is above 100 µM.
As to `NCCCCNCCCN`, the TGI is above 100 µM.
For the compound `Clc1ccccc1-c1nc2ccccc2[nH]1`, the GI50 was above 100 µM and the TGI is above 100 µM.
As for `C=C1c2nc3ccccc3n2C=C(c2ccc(Cl)cc2)N1c1ccccc1`, the TGI is above 100 µM.
For `c1ccc(-c2n(Cc3ccc4ccccc4n3)c3ccccc3[n+]2Cc2ccc3ccccc3n2)cc1`, the GI50 is 0.496 µM and the TGI worked out at 3.05 µM.
Consider `Cc1ccccc1NC(=S)N=Nc1c(O)[nH]c2ccccc12`, for which the TGI is above 100 µM.
As for `CC[C@](O)(C(=O)O)c1cc2n(c(=O)c1CO)Cc1cc3ccccc3nc1-2`, the GI50 is 0.13 µM and 0.0743 µM; the TGI was 18.8 µM and 15.5 µM.
Regarding `COc1ccc(S(=O)(=O)O)cc1NS(=O)(=O)c1ccc(C)cc1`, the TGI is above 100 µM.
With `Cc1cc(C)cc(Nc2nccc(-c3c(-c4ccc(F)cc4)ncn3C3CCNCC3)n2)c1`, the GI50 was 1.28 µM and the TGI stood at 3.67 µM.
`CC(=O)O[C@H]1CC[C@@]2(C)C(=CC[C@@H]3[C@@H]2CC[C@]2(C)c4nc(N)c(C#N)cc4C[C@@H]32)C1`: the TGI worked out at 85.6 µM.
Regarding `CCOC(=O)Nc1nc2c(F)c(F)c(F)cc2s1`, the GI50 is above 100 µM and the TGI is above 100 µM.
`N=C(N)n1[nH]c2c(c1=O)CCC2` gave a TGI above 100 µM.
On the same count and under the same terms, next, `[N-]=[N+]=C1CNC(=O)NC1=O`: above 100 µM; `N/C(=N\Nc1nc2cc([N+](=O)[O-])ccc2o1)c1ccccn1`: 8.45 µM; `CCCCCC(/C=C/[C@@H]1CC(=O)C[C@H]1O[Si](C)(C)C(C)(C)C)OCOCCOC` (stereo partly specified): 32.6 µM.
On the same count and under the same terms, next, `Cc1ccc([N+](=O)[O-])cc1S(=O)(=O)Nc1ccc(C2=NN(c3ccc([N+](=O)[O-])cc3[N+](=O)[O-])C(c3ccccc3O)C2)cc1` (stereo unspecified): above 100 µM; `Cc1cc2nc3n(c2cc1C)C(c1c(F)cccc1F)SC3` (stereo unspecified): 57.4 µM.
For `COc1cc(Nc2ncc3c(n2)-c2ccc(Cl)cc2C(c2c(F)cccc2OC)=NC3)ccc1C(=O)O`, the GI50 was 26.7 µM and the TGI was above 95.1 µM.
On the same counts, the results for `COc1ccc2nc(-c3ccccc3)cc(Nc3ccc(/C(C)=N/O)cc3)c2c1` are 2.31 µM and 7.75 µM.
The corresponding values for `O=C1C=C(N2CC2)c2ccccc2C1=O` are 1.79 µM and 3.22 µM.
In turn, `N/C(=N\OC(=O)NC(Cl)=C(Cl)Cl)c1cc(C(F)(F)F)cc(C(F)(F)F)c1` yielded a TGI of 25.5 µM.
The same measure, in the same setting: with `c1ccc([C@H]2CN3CCSC3=N2)cc1` the figure was above 100 µM; with `O=C(CCCn1ccnc1[N+](=O)[O-])NCCn1cnc([N+](=O)[O-])c1`, above 100 µM; with `CC1OC(OC2C(OC3C[C@@]4(C)C(C[C@H](O)[C@H]5[C@H](C6(C)CCC(C(C)(C)O)O6)CCC54C)[C@]4(C)CC[C@@H](O)C(C)(C)C34)OC(CO)C(O)C2O)C(O)C(O)C1O` (stereo partly specified) (tested in a mixture with another compound), above 100 µM.
Same read-out and setting: next, `Sc1nnc(-c2ccccc2Nc2ccccc2-c2nnc(S)n2-c2ccccc2)n1-c1ccccc1`: above 100 µM.
In the case of `CC(=O)OC1CCC2(C)C(CCC3C2CCC2(C)C(C4=CC(=O)OC4)CCC32)C1` (stereo unspecified), the GI50 is 2.18 µM and the TGI turned out to be 6.22 µM.
Compound `c1ccc(C(CCN2CCCC2)c2ccccn2)cc1` (stereo unspecified) had a TGI above 100 µM.
The same measure, in the same setting: next, `Brc1cccc(C2(CCCC3(c4cccc(Br)n4)OCCO3)OCCO2)n1`: above 100 µM.
The same measure, in the same setting: with `COc1cc(C/C=C/c2ccccc2)c(OC)cc1O` the figure was above 100 µM.
Take `O=C1CC(c2ccccc2)Cc2nc3ccc(Cl)cc3cc21` (stereo unspecified): the GI50 is 0.841 µM and the TGI was above 100 µM.
In the case of `COc1cc(C)c(C(=O)/C=C/c2cc(OC)c(O)c(OC)c2)cc1O`, the TGI amounted to 69.9 µM.
The same measure, in the same setting: next, `CSc1nc(Cl)c(Br)c(Nc2c[nH]c(=O)[nH]c2=O)n1`: 33.4 µM.
Consider `Cc1cc[c-]cc1.Fc1c[c-]c(-c2ccccn2)c(F)c1.N#CCC[PH+](CCC#N)c1ccccc1.[Pt+2]`, for which the GI50 is 5.24 µM and the TGI was above 100 µM.
Regarding `CC(=O)c1ccc2c(c1)oc(=O)n2CCN(C)C`, the TGI was above 100 µM.
Still for that read-out and setting: next, `Cc1nc2ccccc2c(=O)n1NC(=O)Cc1ccccc1`: above 100 µM.
The same measure, in the same setting: with `O=[N+]([O-])c1cccc2nc3ccccc3c(NCCC[N+]3([O-])CCCCC3)c12` the figure was 4.12 µM; with `O=C1C=CC2(O[C@@H](Cc3ccccc3)[C@H](Cc3ccccc3)O2)C(SC(=O)c2ccccc2)C1` (stereo partly specified), 23.8 µM; with `CC1NOC(NS(=O)(=O)c2ccc(N=Nc3c(O)c(C(=O)O)cc4ccccc34)cc2)C1C` (stereo unspecified), above 100 µM.
On the same count and under the same terms, next, `C=CCN1CC2CN=NC2(C#N)C1` (stereo unspecified): above 100 µM.
The compound `Cn1cc2ccccc2c1-c1nc(F)nc(Oc2ccc3c(c2)CC[C@@H]2C3CC[C@]3(C)C(O)CCC23)n1` (stereo partly specified) gave a TGI of 71.9 µM.
For `Cc1ccc(C(=O)Nc2ccc(CN3CCN(C)CC3)c(C(F)(F)F)c2)cc1C#Cc1cncc2ncccc12`, the GI50 is 0.465 µM and the TGI is 9.95 µM.
The corresponding values for `O=C(Cc1ccc(/C=C/C(=O)c2ncc[nH]2)cc1)Nc1ccc(Br)cc1` are 3.71 µM and 13.8 µM.
On the same counts, the results for `O=C(Cc1ccccc1)Nc1nnc(CCSCCc2nnc(NC(=O)Cc3ccccc3)s2)s1` are 2.63 µM and 58.5 µM.
With `O=C1c2c(c3c4ccccc4n4c3c3c2c2ccccc2n3C/C=C\C4)C(=O)N1Cc1ccccc1`, the TGI was above 100 µM.
Still for that read-out and setting: with `CC(=O)Nc1ccc(-c2nnc(SCC(=O)Nc3ccccc3[N+](=O)[O-])o2)cc1` the figure was above 100 µM.
With `c1ccc(Cn2cc3c(c2)-c2oncc2CC3)cc1`, the GI50 was 3.06 µM and the TGI is above 100 µM.
Compound `O=c1[nH]c(=O)n(C2CC(O)C(CO)O2)cc1NN=NCc1ccccc1` (stereo unspecified) came in with a TGI above 100 µM.
Still for that read-out and setting: next, `O=C1CCC2=C(CCC2)N1CCc1ccc2c(c1)OCO2`: above 100 µM; `CCOC(=O)/C=C(/C(=O)OCC)n1c(=O)c(C)cn(C2CC(N=[N+]=[N-])C(CO)O2)c1=O` (stereo unspecified): above 100 µM.
Regarding `NCCCn1c2c(c3ccc([N+](=O)[O-])cc3c1=O)C(=O)c1cc3c(cc1-2)OCO3`, the GI50 is 0.237 µM and the TGI worked out at 2.73 µM.
As to `O=C1C[C@@H](c2ccccc2)NCCCCN(O)CCCN1`, the TGI is above 100 µM.
For the compound `COc1ccc(N2C(=O)C3c4[nH]c5ccccc5c4C4CCC(C(C)C)CC4C3C2=O)cc1` (stereo unspecified), the TGI is above 100 µM.
On to `O=C1C2C(C(=O)[N]1[Hg][c]1ccccc1)C1(Cl)C(Cl)=C(Cl)C2(Cl)C1(Cl)Cl` (stereo unspecified), for which the GI50 is 11.1 µM and the TGI was 25.9 µM.
